The record followed here is PubChem BioAssay AID488969 (Vanderbilt High Throughput Screening Facility, 2010).

Structures are written as SMILES. Over roughly 110,000 compounds, “z-score” has its median near -0.1; the highest 2% begin near 2. The list shows a part of the results.

This assay deals with Metabotropic glutamate receptor 8 (Rattus norvegicus) (UniProt P70579). Description: mGluR8 Gi/Go-coupled signaling modulation – cell-based, rat, thallium flux, HTS, primary screen (AID 488969). Conditions: HEK293 rat mGluR8, GIRK (G protein-gated inwardly rectifying potassium channel) thallium flux, FluoZin2; at 10 µM; stronger effect = higher value; submaximal glutamate (EC20) added with thallium.
Chain of UniProt P70579 (P70579 whole entry, looked up): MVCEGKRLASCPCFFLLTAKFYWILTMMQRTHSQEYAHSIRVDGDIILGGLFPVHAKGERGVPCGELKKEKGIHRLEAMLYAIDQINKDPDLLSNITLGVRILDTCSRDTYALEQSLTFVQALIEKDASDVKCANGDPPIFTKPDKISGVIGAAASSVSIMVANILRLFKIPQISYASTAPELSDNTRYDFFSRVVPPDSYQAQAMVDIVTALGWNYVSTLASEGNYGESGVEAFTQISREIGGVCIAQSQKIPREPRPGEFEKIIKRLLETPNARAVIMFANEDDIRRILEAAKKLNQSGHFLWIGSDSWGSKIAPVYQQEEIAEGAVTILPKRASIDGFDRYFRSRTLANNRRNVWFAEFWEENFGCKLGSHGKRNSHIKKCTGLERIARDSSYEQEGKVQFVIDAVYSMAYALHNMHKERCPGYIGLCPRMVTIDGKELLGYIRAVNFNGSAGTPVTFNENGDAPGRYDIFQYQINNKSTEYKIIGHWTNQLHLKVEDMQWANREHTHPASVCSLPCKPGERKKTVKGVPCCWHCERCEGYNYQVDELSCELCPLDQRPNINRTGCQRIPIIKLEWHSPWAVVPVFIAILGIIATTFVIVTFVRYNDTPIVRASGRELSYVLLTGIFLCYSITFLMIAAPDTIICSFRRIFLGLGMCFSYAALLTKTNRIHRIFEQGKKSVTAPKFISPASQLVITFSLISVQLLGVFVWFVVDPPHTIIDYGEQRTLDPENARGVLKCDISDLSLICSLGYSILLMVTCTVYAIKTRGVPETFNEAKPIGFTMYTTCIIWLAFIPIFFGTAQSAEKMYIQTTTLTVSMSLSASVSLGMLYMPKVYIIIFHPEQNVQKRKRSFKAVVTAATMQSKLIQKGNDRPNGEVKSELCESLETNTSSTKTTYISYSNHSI
The compound `O=Cc1c(Sc2ccccn2)nc2ccccn2c1=O` showed a z-score of -0.196.

`CCn1c(SCC(=O)Nc2ccc3c(c2)OCCO3)nnc1-c1ccco1` showed a z-score of -0.239.

With `N#Cc1c(N)nc2c(c1-c1ccncc1)CCCCCC2`, the z-score turned out to be 0.22. In the case of `CCC(C)Cn1c(S(=O)(=O)O)nc2ccccc21` (configuration not stated) it was -0.238.

`CCCCn1c(SCC(=O)Nc2nnc(CC)s2)nc2c1c(=O)n(C)c(=O)n2C` registered a z-score of -1.36. In the case of `Brc1csc(/C=N/Nc2nc3ccccc3s2)c1` it was -0.251. In turn, `COc1ccc(-c2cnc(N)nc2-c2ccc(OC)cc2O)cc1` displayed a z-score of -0.553.

In the case of `O=C(CCN1CCc2ccccc2CC1)c1ccc2c(c1)OCCO2`, the z-score was found to be 0.15. `CC(C)OCCCN1C(=O)c2[nH]nc(-c3ccccc3O)c2C1c1cccc(Cl)c1` (configuration not stated) gave a z-score of -0.148. `O=C(COC(=O)c1ccccc1NC(=O)C1CC1)c1ccc2c(c1)OCCO2`: the z-score was -1.16. On to `O=C(NC1CCN(S(=O)(=O)c2ccccc2)CC1)C1CCCCC1`, for which the z-score came to 0.185. `CCOc1ccc(C(=O)N2CCCC2)cc1`: the z-score is -0.0984.

`COc1ccc(CCNC(=O)COC(=O)C2CCCCC2)cc1` showed a z-score of -0.428.

For the compound `CC1CCC(=C(C#N)C(=O)Nc2cccc(Cl)c2)CC1` (configuration not stated), the z-score is -0.314.

Take `CCN(CC)S(=O)(=O)c1cccc(C(=O)N[C@H](C(=O)OCC(=O)NC(=O)NC)C(C)C)c1`: the z-score was -0.399. In turn, `NC(=O)C1CCN(C(=O)Cc2ccc([N+](=O)[O-])cc2)CC1` had a z-score of -0.0666. For `O=C(CN1CCOCC1)Nc1c(-c2ccccc2)c2cc(Br)ccc2[nH]c1=O`, the z-score was -0.356.

On to `Cc1cc(C(=O)OC(C(=O)Nc2cccc(C(F)(F)F)c2)c2ccccc2)c(C)o1` (configuration not stated), for which the z-score was -0.299. The compound `O=c1c2cnn(-c3ccccc3)c2nc(-c2ccco2)n1-c1ccccc1` had a z-score of -0.191. `CC1=NN(C(=O)c2ccc(Cn3nc(C)c([N+](=O)[O-])c3C)o2)C(O)(C(F)(F)F)C1` (configuration not stated) returned a z-score of 0.08. In turn, `COc1ccc(N2CCN(c3nc4c(c(=O)n(C)c(=O)n4C)n3Cc3ccccc3)CC2)cc1` came in with a z-score of -1.25. On to `c1cn(-c2ncnc3sc4c(c23)CCCC4)cn1`, for which the z-score is -0.0646.

On to `O=C(CCCN1C(=O)CCC1=O)Nc1ccc2c(c1)OCCO2`, for which the z-score came to 0.374.

In turn, `CCOC(=O)c1c2n(c3ccc(O)cc13)CCCCC2` gave a z-score of -0.822. `O=C(c1ccccc1)N1CCN(CC#CC2(O)CCCCC2)CC1` showed a z-score of -0.0941. In the case of `CCc1nnc(NS(=O)(=O)c2ccc(NC(=S)NC(=O)c3ccc(Br)cc3)cc2)s1` it was -1.21; in that of `CC(=O)NC(Cc1ccc(C)cc1)C(=O)NC1CCN(C(=O)c2ccc([N+](=O)[O-])cc2)CC1` (configuration not stated), 0.305; in that of `CCc1ccccc1NS(=O)(=O)c1ccc2[nH]cc(C(=O)NCc3ccco3)c(=O)c2c1`, 0.208. Compound `Cc1ccc(N(C(=O)c2ccc(CN3CCOCC3)o2)C(C(=O)NCCC(C)C)c2cccs2)c(C)c1` (configuration not stated) had a z-score of 0.742. `CC(c1ccccc1)N1CCn2c(nc3cc(NC(=O)c4cccs4)ccc32)C1` (configuration not stated): the z-score was -0.735.

For the compound `CCOc1ccccc1NC(=O)CSc1nnnn1-c1ccccc1`, the z-score is 1.38.

For `O=C(Nc1ccc(CN2CCOCC2)cc1)c1cccs1`, the z-score stood at 0.262. Regarding `COC(=O)c1[nH]c2ccc(F)cc2c1NC(=O)Nc1ccc(OC)cc1`, the z-score turned out to be 0.178.

In turn, `CCOC(=O)c1ccc(N2C(=O)c3n[nH]c(C)c3C2c2ccc(OC)cc2)cc1` (configuration not stated) returned a z-score of -0.000728.

`Cc1c(C(=O)O)oc2ccc(S(=O)(=O)NCc3ccccc3)cc12`: the z-score is 0.326.

Compound `Brc1cccc(-c2nnc3sc(CNC4CCCC4)cn23)c1` showed a z-score of -0.497. `O=C(CCCSc1nc(-c2ccco2)cc(C(F)(F)F)n1)Nc1ccc2c(c1)OCO2` yielded a z-score of -0.675. As for `O=C1/C(=C\c2ccc3ccccc3c2)CCCc2ccccc21`, the z-score amounted to 0.0934. Consider `Nc1ccc(Sc2cc(Cl)nc(N)n2)cc1`, for which the z-score was 0.297. Regarding `CC(C)C(OC(=O)C1=Cc2ccccc2OC1)C(=O)NC1CCCC1` (configuration not stated), the z-score was -0.0248.

Turning to `Cc1cccc(C)c1-n1c(C)cc(/C=C2\NC(=O)NC2=O)c1C`, the z-score is -0.96. With `O=C(c1ccccc1)N1CCN(c2ccc([N+](=O)[O-])c(NCc3ccco3)c2)CC1`, the z-score is -0.534. In the case of `O=C(N1CCCCCC1)N1CCN(C(=O)N2CCCCC2)CC1` it was 0.0492; in that of `O=S(Cc1ccccc1)CC(O)(c1ccccc1)c1ccccc1` (configuration not stated), -0.041; in that of `COC(=O)C(Cc1cnc(Cl)s1)(C(=O)OC)c1ccc([N+](=O)[O-])cc1`, -0.495. In the case of `CCCCC1(C)NC(=O)c2c(C)sc(C(=O)OCC)c2N1` (configuration not stated), the z-score was -0.95. In the case of `CC(C)n1c(=S)[nH]c2c1c(=O)[nH]c(=O)n2C` it was -0.0669; in that of `CN1C(=O)c2ccc(NC(=S)NC(=O)C(C)(C)C)cc2C1=O`, -0.0666. `N/C(=N\OC(=O)c1ccc2c(c1)OCO2)c1ccc(Cl)cc1` had a z-score of -0.227. Compound `CCC(=O)Nc1nonc1-c1nc2ccccc2n1N(C(=O)CC)C(=O)CC` showed a z-score of -0.00733.

As to `Fc1ccccc1COc1ccccc1/C=N/Nc1nc(N2CCCC2)nc(N2CCCC2)n1`, the z-score was -0.084. Regarding `Cc1sc2nc(CSCC(=O)Nc3ccccc3C#N)[nH]c(=O)c2c1C`, the z-score was -0.0633. `O=C(Cn1c(=O)n(CC2CCCO2)c(=O)c2ccccc21)c1ccc(Cl)c(Cl)c1` (configuration not stated) yielded a z-score of -0.297. In turn, `Cc1cnc(Nc2nc3ccccc3o2)nc1C(=O)Nc1cccc(C(F)(F)F)c1` came in with a z-score of -0.463. As to `COc1cc(C)c(C)cc1S(=O)(=O)N1CCN(Cc2ccccc2)CC1`, the z-score turned out to be 0.139. In turn, `O=C(CCc1ccccc1)n1nc(-c2ccccc2)nc1NCc1ccco1` came in with a z-score of -0.0562. In turn, `CCNC(=S)N/N=C(\C)c1cccc([N+](=O)[O-])c1` displayed a z-score of 0.559. In the case of `O=C(Cc1cccs1)Nc1nnc(SCc2ccc(F)cc2)s1` it was -0.158; in that of `COc1cc(OC)c(OC)cc1CNCCNC(=O)c1nonc1N`, -0.173; in that of `Nn1c(-c2ccco2)n[nH]c1=S`, -0.454. The compound `COCCCNCCCOc1ccc(Cl)cc1C(C)(C)C` had a z-score of 0.908. The result for `COc1cc(C(=S)N2CCOCC2)ccc1OS(=O)(=O)c1ccccc1[N+](=O)[O-]` reads -0.106; that for `COCCNC(=O)COC(=O)CSCc1nc2ccccc2s1`, -0.397; that for `O=C(NCCCN=C1NS(=O)(=O)c2ccccc21)c1ccc(S(=O)(=O)N2CCOCC2)cc1`, -0.163. In turn, `CCOC(=O)C1=C(C)N(c2ccccc2)C(=O)C1CC(=O)O` (configuration not stated) had a z-score of 0.197. `COc1ccc(-c2cc(C(F)F)n3ncc(C(=O)N4CCCCC4)c3n2)cc1` registered a z-score of -1.62.

In turn, `CN1C(=S)SC(/[N+]([O-])=C\c2ccccc2)C1(C)C` (configuration not stated) yielded a z-score of 0.163. In the case of `CSc1nc(Oc2ccccc2)c2sccc2n1` it was -0.199; in that of `COc1ccc(OC)c(Nc2nc(N)nc(CSc3nnc(N)s3)n2)c1`, -0.0636. Regarding `CC1CN(Cc2nc3c(c(=O)[nH]c(=O)n3C)n2CCCc2ccccc2)CC(C)O1` (configuration not stated), the z-score is -0.229. In turn, `COc1cc(C(=O)OCC(=O)N(C)C)cc(NC(=O)c2ccco2)c1OC` yielded a z-score of -0.0917.

Consider `Cc1ccc2c(Cl)c(C(=O)Nc3ccc4c(c3)OCO4)sc2c1`, for which the z-score amounted to 0.402. In the case of `CC(=O)N(CCCc1ccc(C(C)(C)C)cc1)CCCN(C)C` it was 1.42; in that of `COc1ccc(Cl)c(N2CCN(CCCNC(=O)Nc3ccc(C)cc3)CC2)c1`, 2.3; in that of `Cc1ccc2c(c1)C(=O)CCN2`, 0.498.

Consider `CCn1cc(C(=O)NC(=S)Nc2sc3c(c2C(=O)OC)CCCCCC3)cn1`, for which the z-score was -0.247. For the compound `CCNC(=S)N1CCN(c2ccccn2)CC1`, the z-score was determined as 0.121. With `Cc1cccc(C(=O)OCC(=O)Nc2sc3c(c2C#N)CCC3)c1`, the z-score is 0.126.

Compound `C=C(C)C1CC=C(C)/C(=N\NC(=O)CNc2cccc3ccccc23)C1` (configuration not stated) came in with a z-score of 0.109. For the compound `COc1cc(OC)c(NS(=O)(=O)c2cc(C(=O)OC(C)C(=O)NC3CC3)c(Cl)cc2Cl)cc1Cl` (configuration not stated), the z-score was -0.282. In turn, `Cc1ccc(N(CC(=O)NC2CCCC2)C(=O)CCCC(=O)Nc2ccccn2)cc1C` showed a z-score of -0.332. `C/C(=N/NC(=O)c1ccco1)c1cccc(NC(=O)c2ccc(C)o2)c1`: the z-score is -0.343. In the case of `O=C1CSC(c2cccc(F)c2)N1c1ccc(O)cc1` (configuration not stated), the z-score is -0.13.

`COc1nccnc1NS(=O)(=O)c1ccc(NC(=S)NC(=O)c2ccccc2)cc1` gave a z-score of 0.0809. The compound `COc1cc(/C=C(\C#N)C(=O)Nc2cc(C(F)(F)F)ccc2Cl)ccc1OCC(=O)Nc1cccc(C(F)(F)F)c1` displayed a z-score of -0.0529.

`COCCNC(=O)/C(C#N)=C/c1cccc(/C=C(\C#N)C(=O)NCCOC)c1` registered a z-score of -0.235. The result for `O=C(Nc1cccc(NC(=O)c2ccc(-c3ccc(Br)cc3)o2)c1)c1ccco1` reads 0.231. In turn, `O=C(CSc1nnc(Cc2cccs2)n1C1CCCCC1)N1CCCc2ccccc21` yielded a z-score of -0.263. On to `CCn1c(CC(=O)Nc2ccccc2)nnc1SCC(=O)Nc1ccccc1C(=O)OC`, for which the z-score was -0.437.

For `O=C(COc1ccccc1)NCC(=O)N/N=C/C=C/c1ccccc1`, the z-score is -0.223. `CCCOc1ccc(-c2nn(-c3ccccc3)cc2/C=C2\SC(=S)N(C3CCS(=O)(=O)C3)C2=O)cc1` (configuration not stated) yielded a z-score of 0.0736. `CCCNC(=O)C1CN(S(=O)(=O)c2ccccc2)CCN1S(=O)(=O)c1ccccc1` (configuration not stated) came in with a z-score of -0.0722.

In turn, `COc1ccc(S(=O)(=O)N2CCOCC2)cc1NC(=O)c1ccccc1-c1ccc(C(F)(F)F)cc1` displayed a z-score of -0.207. In the case of `c1ccc2c(c1)CCN(Cc1nnnn1Cc1ccc3c(c1)OCO3)C2` it was 0.228; in that of `O=S(=O)(NCCSCc1c(Cl)cccc1Cl)c1ccc2c(c1)OCCO2`, -0.356; in that of `Cc1ccc(NC(=O)c2cnccn2)c(OC(F)F)c1`, 0.143. The compound `CC(O)C(=O)N/N=C/c1cccc(Cl)c1Cl` (configuration not stated) returned a z-score of -0.0908. In turn, `COc1cc(C(=O)NC(=S)NCc2ccco2)cc(OC)c1OC` displayed a z-score of -0.226.

Take `Cc1ccc(C(=O)c2c(NC(=O)c3ccncc3)sc3c2CCCC3)cc1`: the z-score is -0.431. `COCCN(C(=O)c1ccccc1)c1nnc(-c2cccnc2)s1` came in with a z-score of -0.0208. `O=C(N/N=C/c1ccccc1O)c1cccc(C(F)(F)F)c1` displayed a z-score of 0.118. For the compound `Cc1cc(C(=O)CSc2nnc(-c3ccccc3)o2)c(C)n1CC1COc2ccccc2O1` (configuration not stated), the z-score was 0.112.

With `CNC(=O)Nc1ccccc1F`, the z-score turned out to be 0.0432. In the case of `CN1C=CC=C/C1=C1/SC(=S)N(Cc2ccccc2)C1=O`, the z-score is -0.0538. For the compound `CN(C(=O)CSc1nc(N)nn1-c1ccccc1)c1ccccc1`, the z-score is -0.316. `CCCCn1c(CCC)nc([N+](=O)[O-])c1Sc1ccc(Cl)cn1` yielded a z-score of -0.603. Compound `CC1CN(Cc2nc3c(c(=O)n(C)c(=O)n3C)n2CCc2ccccc2)CC(C)O1` (configuration not stated) displayed a z-score of -0.121.
